# The other results are listed elsewhere or left out.
# B1: HMGB1 (Rattus norvegicus), P63159 (protein)
# chain: MGKGDPKKPRGKMSSYAFFVQTCREEHKKKHPDASVNFSEFSKKCSERWKTMSAKEKGKFEDMAKADKARYEREMKTYIPPKGETKKKFKDPNAPKRPPSAFFLFCSEYRPKIKGEHPGLSIGDVAKKLGEMWNNTAADDKQPYEKKAAKLKEKYEKDIAAYRAKGKPDAAKKGVVKAEKSKKKKEEEDDEEDEEDEEEEEEEEDEDEEEDDDDE
# Legend:
# Experiment in all cases: glycan array binding signal (z-score within array); higher = stronger binding
# Settings in all cases: glycan notation: IUPAC condensed, linker removed
# GlcNAc(b1-3)Gal(b1-4)Glc = target: GlcNAc(b1-3)Gal(b1-4)Glc
# Outline: (§1)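 The Consortium for Functional Glycomics database supplied 3228 glycan arrays, of which those lacking an available protein sequence were dropped. The binding signal, a within-array Z-score, was averaged across arrays of the same protein sequence and across linkers. Negative scores can be read as non-binding.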
# [1] = target: GlcNAc(b1-3)Gal(b1-4)GlcNAc
# Outline: as §1
# [2] = target: GlcNAc(b1-3)Gal(b1-4)GlcNAc(b1-3)Gal(b1-4)GlcNAc
# Outline: as §1
# GlcNAc(b1-3)GalNAc = target: GlcNAc(b1-3)GalNAc
# Outline: as §1
# [3] = target: GlcNAc(b1-3)[GlcNAc(b1-4)][GlcNAc(b1-6)]GlcNAc
# Outline: as §1
# [4] = target: GlcNAc(b1-3)[GlcNAc(b1-6)]Gal(b1-4)GlcNAc
# Outline: as §1
# [5] = target: GlcNAc(b1-3)[GlcNAc(b1-6)]GlcNAc
# Outline: as §1
# [6] = target: GlcNAc(b1-4)Gal(b1-4)GlcNAc
# Outline: as §1
# [7] = target: GlcNAc(b1-4)GlcNAc(b1-4)GlcNAc
# Outline: as §1
# [8] = target: GlcNAc(b1-4)GlcNAc(b1-4)GlcNAc(b1-4)GlcNAc(b1-4)GlcNAc
# Outline: as §1
# [9] = target: GlcNAc(b1-4)GlcNAc(b1-4)GlcNAc(b1-4)GlcNAc(b1-4)GlcNAc(b1-4)GlcNAc
# Outline: as §1
# [10] = target: GlcNAc(b1-4)[GlcNAc(b1-6)]GalNAc
# Outline: as §1
# [11] = target: GlcNAc(b1-6)Gal(b1-4)GlcNAc
# Outline: as §1
# GlcNAc(b1-6)GalNAc = target: GlcNAc(b1-6)GalNAc
# Outline: as §1
# Kdn(a2-3)Gal(b1-3)GlcNAc = target: Kdn(a2-3)Gal(b1-3)GlcNAc
# Outline: as §1
# Kdn(a2-3)Gal(b1-4)GlcNAc = target: Kdn(a2-3)Gal(b1-4)GlcNAc
# Outline: as §1
# [12] = target: Man(a1-2)Man(a1-2)Man(a1-3)Man
# Outline: as §1
# [13] = target: Man(a1-2)Man(a1-2)Man(a1-3)[Man(a1-2)Man(a1-3)[Man(a1-2)Man(a1-6)]Man(a1-6)]Man(b1-4)GlcNAc(b1-4)GlcNAc
# Outline: as §1
# [14] = target: Man(a1-2)Man(a1-2)Man(a1-3)[Man(a1-2)Man(a1-6)[Man(a1-3)]Man(a1-6)]Man(b1-4)GlcNAc(b1-4)GlcNAc
# Outline: as §1
# [15] = target: Man(a1-2)Man(a1-2)Man(a1-6)[Man(a1-3)]Man
# Outline: as §1
# Man(a1-2)Man(a1-3)Man = target: Man(a1-2)Man(a1-3)Man
# Outline: as §1
# [16] = target: Man(a1-2)Man(a1-3)[Man(a1-2)Man(a1-6)]Man
# Outline: as §1
# [17] = target: Man(a1-2)Man(a1-3)[Man(a1-3)[Man(a1-6)]Man(a1-6)]Man(b1-4)GlcNAc(b1-4)GlcNAc
# Outline: as §1
# [18] = target: Man(a1-2)Man(a1-3)[Man(a1-6)]Man(a1-6)[Man(a1-2)Man(a1-3)]Man(b1-4)GlcNAc(b1-4)GlcNAc
# Outline: as §1
# Man(a1-3)[Man(a1-6)]Man = target: Man(a1-3)[Man(a1-6)]Man
# Outline: as §1
# [19] = target: Man(a1-3)[Man(a1-6)]Man(a1-6)[Man(a1-3)]Man(b1-4)GlcNAc(b1-4)GlcNAc
# Outline: as §1
# [20] = target: Man(a1-3)[Man(a1-6)]Man(b1-4)GlcNAc(b1-4)GlcNAc
# Outline: as §1
# Man(b1-4)GlcNAc = target: Man(b1-4)GlcNAc
# Outline: as §1
# Neu5Ac(a2-3)Gal = target: Neu5Ac(a2-3)Gal
# Outline: as §1
# [21] = target: Neu5Ac(a2-3)Gal(b1-3)GalNAc
# Outline: as §1
# [22] = target: Neu5Ac(a2-3)Gal(b1-3)GalNAc(b1-3)Gal(a1-4)Gal(b1-4)Glc
# Outline: as §1
# [23] = target: Neu5Ac(a2-3)Gal(b1-3)GalNAc(b1-4)[Neu5Ac(a2-3)]Gal(b1-4)Glc
# Outline: as §1
# [24] = target: Neu5Ac(a2-3)Gal(b1-3)GalNAc6S
# Outline: as §1
# [25] = target: Neu5Ac(a2-3)Gal(b1-3)GlcNAc
# Outline: as §1
# [26] = target: Neu5Ac(a2-3)Gal(b1-3)GlcNAc(b1-3)Gal(b1-4)GlcNAc
# Outline: as §1
# [27] = target: Neu5Ac(a2-3)Gal(b1-3)GlcNAc6S
# Outline: as §1
# [28] = target: Neu5Ac(a2-3)Gal(b1-3)[Fuc(a1-4)]GlcNAc
# Outline: as §1
# [29] = target: Neu5Ac(a2-3)Gal(b1-3)[Fuc(a1-4)]GlcNAc(b1-3)Gal(b1-4)[Fuc(a1-3)]GlcNAc
# Outline: as §1
# [30] = target: Neu5Ac(a2-3)Gal(b1-3)[Neu5Ac(a2-3)Gal(b1-4)]GlcNAc
# Outline: as §1
# [31] = target: Neu5Ac(a2-3)Gal(b1-3)[Neu5Ac(a2-6)]GalNAc
# Outline: as §1
binder,measurement,setting,value
B1,glycan array binding signal (z-score),GlcNAc(b1-3)Gal(b1-4)Glc,0.617
same,glycan array binding signal (z-score),[1],-0.411
same,glycan array binding signal (z-score),[2],-0.369
same,glycan array binding signal (z-score),GlcNAc(b1-3)GalNAc,-0.446
same,glycan array binding signal (z-score),[3],-0.482
same,glycan array binding signal (z-score),[4],-0.499
same,glycan array binding signal (z-score),[5],-0.561
same,glycan array binding signal (z-score),[6],-0.031
same,glycan array binding signal (z-score),[7],-0.167
same,glycan array binding signal (z-score),[8],0.04
same,glycan array binding signal (z-score),[9],0.339
same,glycan array binding signal (z-score),[10],-0.541
same,glycan array binding signal (z-score),[11],2.57
same,glycan array binding signal (z-score),GlcNAc(b1-6)GalNAc,-0.344
same,glycan array binding signal (z-score),Kdn(a2-3)Gal(b1-3)GlcNAc,-0.575
same,glycan array binding signal (z-score),Kdn(a2-3)Gal(b1-4)GlcNAc,-0.401
same,glycan array binding signal (z-score),[12],-0.58
same,glycan array binding signal (z-score),[13],-0.287
same,glycan array binding signal (z-score),[14],-0.147
same,glycan array binding signal (z-score),[15],1.1
same,glycan array binding signal (z-score),Man(a1-2)Man(a1-3)Man,0.018
same,glycan array binding signal (z-score),[16],-0.492
same,glycan array binding signal (z-score),[17],0.289
same,glycan array binding signal (z-score),[18],-0.111
same,glycan array binding signal (z-score),Man(a1-3)[Man(a1-6)]Man,-0.131
same,glycan array binding signal (z-score),[19],-0.07
same,glycan array binding signal (z-score),[20],-0.322
same,glycan array binding signal (z-score),Man(b1-4)GlcNAc,-0.316
same,glycan array binding signal (z-score),Neu5Ac(a2-3)Gal,-0.347
same,glycan array binding signal (z-score),[21],1.07
same,glycan array binding signal (z-score),[22],-0.21
same,glycan array binding signal (z-score),[23],0.326
same,glycan array binding signal (z-score),[24],0.91
same,glycan array binding signal (z-score),[25],1.87
same,glycan array binding signal (z-score),[26],-0.279
same,glycan array binding signal (z-score),[27],-0.541
same,glycan array binding signal (z-score),[28],-0.164
same,glycan array binding signal (z-score),[29],-0.002
same,glycan array binding signal (z-score),[30],0.147
same,glycan array binding signal (z-score),[31],0.013

# Source: the supplement of paper PMC8728848
